These are yes or no findings as the source states them, for the method shown. Some entries that bind do so weakly or less than the wild type.
T1: ARF4 (Arabidopsis thaliana) (UniProt Q9ZTX9)
T1 sequence: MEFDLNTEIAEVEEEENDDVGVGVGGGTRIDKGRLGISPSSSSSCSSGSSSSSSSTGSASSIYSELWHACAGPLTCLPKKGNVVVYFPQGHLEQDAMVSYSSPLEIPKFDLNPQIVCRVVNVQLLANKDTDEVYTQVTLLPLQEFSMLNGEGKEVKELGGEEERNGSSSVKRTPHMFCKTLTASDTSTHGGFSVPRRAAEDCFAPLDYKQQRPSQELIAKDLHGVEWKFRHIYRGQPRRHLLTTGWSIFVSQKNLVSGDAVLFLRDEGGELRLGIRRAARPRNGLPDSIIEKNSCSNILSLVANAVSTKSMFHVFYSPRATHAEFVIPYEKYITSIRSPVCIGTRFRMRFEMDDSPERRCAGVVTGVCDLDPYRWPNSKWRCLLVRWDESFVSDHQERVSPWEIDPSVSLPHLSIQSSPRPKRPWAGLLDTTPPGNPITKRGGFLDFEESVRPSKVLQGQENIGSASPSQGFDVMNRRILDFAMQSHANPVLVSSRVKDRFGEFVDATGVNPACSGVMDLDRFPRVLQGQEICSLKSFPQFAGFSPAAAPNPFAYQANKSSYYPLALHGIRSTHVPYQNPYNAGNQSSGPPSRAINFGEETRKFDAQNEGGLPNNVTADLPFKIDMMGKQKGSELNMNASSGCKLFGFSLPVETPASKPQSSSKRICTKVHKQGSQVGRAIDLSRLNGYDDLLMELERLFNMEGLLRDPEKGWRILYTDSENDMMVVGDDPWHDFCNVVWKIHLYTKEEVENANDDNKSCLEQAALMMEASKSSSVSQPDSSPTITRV

T2: ARF8 (Arabidopsis thaliana) (UniProt Q9FGV1)
T2 sequence: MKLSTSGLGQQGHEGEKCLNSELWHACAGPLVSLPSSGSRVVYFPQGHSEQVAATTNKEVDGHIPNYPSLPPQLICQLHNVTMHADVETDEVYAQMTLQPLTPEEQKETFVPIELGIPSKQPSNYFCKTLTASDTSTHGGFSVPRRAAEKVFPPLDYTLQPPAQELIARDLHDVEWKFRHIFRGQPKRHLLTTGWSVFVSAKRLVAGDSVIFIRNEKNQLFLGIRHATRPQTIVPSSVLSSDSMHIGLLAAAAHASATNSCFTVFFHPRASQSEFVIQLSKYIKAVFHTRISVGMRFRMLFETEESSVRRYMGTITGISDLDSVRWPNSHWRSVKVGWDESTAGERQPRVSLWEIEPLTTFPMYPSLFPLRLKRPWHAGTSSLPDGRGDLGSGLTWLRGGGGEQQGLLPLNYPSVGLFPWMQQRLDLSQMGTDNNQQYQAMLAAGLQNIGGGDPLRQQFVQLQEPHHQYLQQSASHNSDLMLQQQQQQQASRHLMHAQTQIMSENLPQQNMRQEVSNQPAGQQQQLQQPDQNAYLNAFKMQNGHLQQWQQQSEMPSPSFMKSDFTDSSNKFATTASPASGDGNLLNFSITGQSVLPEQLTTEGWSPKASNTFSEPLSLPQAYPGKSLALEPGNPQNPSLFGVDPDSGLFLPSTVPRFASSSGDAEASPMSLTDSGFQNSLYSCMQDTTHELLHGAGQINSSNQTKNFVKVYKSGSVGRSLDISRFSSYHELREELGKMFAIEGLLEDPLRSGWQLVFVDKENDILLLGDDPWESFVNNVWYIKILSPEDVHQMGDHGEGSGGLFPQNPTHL

T3: ARF6 (Arabidopsis thaliana) (UniProt Q9ZTX8)
T3 sequence: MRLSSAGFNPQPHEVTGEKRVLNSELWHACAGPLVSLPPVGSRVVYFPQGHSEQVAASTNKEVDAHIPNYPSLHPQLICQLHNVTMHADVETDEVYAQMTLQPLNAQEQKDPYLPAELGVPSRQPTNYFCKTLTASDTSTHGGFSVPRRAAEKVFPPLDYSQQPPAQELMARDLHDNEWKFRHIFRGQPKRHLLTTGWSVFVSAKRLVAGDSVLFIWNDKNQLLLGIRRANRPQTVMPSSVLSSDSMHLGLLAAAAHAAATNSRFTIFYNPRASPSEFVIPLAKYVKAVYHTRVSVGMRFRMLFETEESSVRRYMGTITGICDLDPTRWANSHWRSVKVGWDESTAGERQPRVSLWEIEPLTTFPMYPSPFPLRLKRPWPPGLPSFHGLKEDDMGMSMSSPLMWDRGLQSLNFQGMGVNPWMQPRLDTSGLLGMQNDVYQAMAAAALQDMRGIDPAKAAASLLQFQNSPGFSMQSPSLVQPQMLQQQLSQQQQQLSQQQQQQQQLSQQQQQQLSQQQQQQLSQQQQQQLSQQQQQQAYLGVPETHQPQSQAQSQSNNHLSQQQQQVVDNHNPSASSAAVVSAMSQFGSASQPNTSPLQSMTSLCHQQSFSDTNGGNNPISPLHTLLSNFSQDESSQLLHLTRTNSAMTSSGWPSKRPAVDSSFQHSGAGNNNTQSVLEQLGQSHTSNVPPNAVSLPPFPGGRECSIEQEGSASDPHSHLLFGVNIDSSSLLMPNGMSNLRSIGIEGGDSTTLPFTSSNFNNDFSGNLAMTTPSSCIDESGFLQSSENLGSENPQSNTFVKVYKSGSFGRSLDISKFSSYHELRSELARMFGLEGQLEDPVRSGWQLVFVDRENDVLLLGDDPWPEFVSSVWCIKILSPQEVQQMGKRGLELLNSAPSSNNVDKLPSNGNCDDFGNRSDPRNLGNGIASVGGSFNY

B1: Aux/IAA32 (protein, UniProt Q8RYC6 1-191)
chain: MDPNTPADFFKGSSKFHTYYSQTKKGGGVIDLGLSLRTIQHETYLPPARMIGLDGYGELIDWSQPSYNSITQLKSEDTGHQRLAQGYYNNEGESRGKYAYVKVNLDGLVVGRKVCLVDQGAYATLALQLNDMFGMQTVSGLRLFQTESEFSLVYRDREGIWRNVGDVPWKEFVESVDRMRIARRNDALLPF
B2: Aux/IAA12 (protein, UniProt Q38830 1-239)
chain: MRGVSELEVGKSNLPAESELELGLGLSLGGGAWKERGRILTAKDFPSVGSKRSAESSSHQGASPPRSSQVVGWPPIGLHRMNSLVNNQAMKAARAEEGDGEKKVVKNDELKDVSMKVNPKVQGLGFVKVNMDGVGIGRKVDMRAHSSYENLAQTLEEMFFGMTGTTCREKVKPLRLLDGSSDFVLTYEDKEGDWMLVGDVPWRMFINSVKRLRIMGTSEASGLAPRRQEQKDRQRNNPV
B3: Aux/IAA8 (protein, UniProt Q38826 1-321)
chain: MSYRLLSVDKDELVTSPCLKERNYLGLSDCSSVDSSTIPNVVGKSNLNFKATELRLGLPESQSPERETDFGLLSPRTPDEKLLFPLLPSKDNGSATTGHKNVVSGNKRGFADTWDEFSGVKGSVRPGGGINMMLSPKVKDVSKSIQEERSHAKGGLNNAPAAKAQVVGWPPIRSYRKNTMASSTSKNTDEVDGKPGLGVLFVKVSMDGAPYLRKVDLRTYTSYQQLSSALEKMFSCFTLGQCGLHGAQGRERMSEIKLKDLLHGSEFVLTYEDKDGDWMLVGDVPWEIFTETCQKLKIMKGSDSIGLAPGAVEKSKNKERV
B4: Aux/IAA2 (protein, UniProt P49678 1-174)
chain: MAYEKVNELNLKDTELCLGLPGRTEKIKEEQEVSCVKSNNKRLFEETRDEEESTPPTKTQIVGWPPVRSSRKNNNSVSYVKVSMDGAPYLRKIDLKTYKNYPELLKALENMFKVMIGEYCEREGYKGSGFVPTYEDKDGDWMLVGDVPWDMFSSSCKRLRIMKGSDAPALDSSL
B5: Aux/IAA11 (protein, UniProt Q38829 1-246)
chain: MEGGSASGSASALSNDENLVVSCEDSSSPIGNELELGLTLSLGRKGYRDCRVYADDSSSSSSSSSLSRASVIAGIKRTADSMAATSGQVVGWPPIRTYRMNSMVNQAKASATEDPNLEISQAVNKNRSDSTKMRNSMFVKVTMDGIPIGRKIDLNAHKCYESLSNTLEEMFLKPKLGSRTLETDGHMETPVKILPDGSSGLVLTYEDKEGDWMLVGDVPWGMFIGSVRRLRIMKTSEATGKAQMIL
B6: Aux/IAA6 (protein, UniProt Q38824 1-189)
chain: MAKEGLALEITELRLGLPGDNYSEISVCGSSKKKKRVLSDMMTSSALDTENENSVVSSVEDESLPVVKSQAVGWPPVCSYRRKKNNEEASKAIGYVKVSMDGVPYMRKIDLGSSNSYINLVTVLENLFGCLGIGVAKEGKKCEYIIIYEDKDRDWMLVGDVPWQMFKESCKRLRIVKRSDATGFGLQQD
B7: Aux/IAA9 (protein, UniProt Q38827 1-338)
chain: MSPEEELQSNVSVASSSPTSNCISRNTLGGLKEHNYLGLSDCSSVGSSTLSPLAEDDKATISLKATELTLGLPGSQSPARDTELNLLSPAKLDEKPFFPLLPSKDEICSSSQKNNASGNKRGFSDTMDQFAEAKSSVYTEKNWMFPEAAATQSVTKKDVPQNIPKGQSSTTNNSSSPPAAKAQIVGWPPVRSYRKNTLATTCKNSDEVDGRPGSGALFVKVSMDGAPYLRKVDLRSYTNYGELSSALEKMFTTFTLGQCGSNGAAGKDMLSETKLKDLLNGKDYVLTYEDKDGDWMLVGDVPWEMFIDVCKKLKIMKGCDAIGLAAAPRAMEKSKMRA
B8: Aux/IAA15 (protein, UniProt Q9C966 1-179)
chain: MSPEEYVRVWPDSGDLGGTELTLALPGTPTNASEGPKKFGNKRRFLETVDLKLGEAHENNYISSMVTNDQLVGWPPVATARKTVRRKYVKVALDGAAYLRKVDLGMYDCYGQLFTALENMFQGIITICRVTELERKGEFVATYEDKDGDLMLVGDVPWMMFVESCKRMRLMKTGDAIGL
B9: Aux/IAA10 (protein, UniProt Q38828 1-261)
chain: MNGLQEVCSSSGSVMIGLPAEEDENAAHSSEDSSCPDESVSETELDLALGLSIGRRKVRSSLSSSSSSLTRESGTKRSADSSPAAASNATRQVAVGWPPLRTYRINSLVNQAKSLATEGGLSSGIQKETTKSVVVAAKNDDACFIKSSRTSMLVKVTMDGVIIGRKVDLNALDSYAALEKTLDLMFFQIPSPVTRSNTQGYKTIKETCTSKLLDGSSEYIITYQDKDGDWMLVGDVPWQMFLGSVTRLRIMKTSIGAGVGK
B10: Aux/IAA13 (protein, UniProt Q38831 1-247)
chain: MITELEMGKGESELELGLGLSLGGGTAAKIGKSGGGGAWGERGRLLTAKDFPSVGSKRAADSASHAGSSPPRSSSQVVGWPPIGSHRMNSLVNNQATKSAREEEEAGKKKVKDDEPKDVTKKVNGKVQVGFIKVNMDGVAIGRKVDLNAHSSYENLAQTLEDMFFRTNPGTVGLTSQFTKPLRLLDGSSEFVLTYEDKEGDWMLVGDVPWRMFINSVKRLRVMKTSEANGLAARNQEPNERQRKQPV
B11: Aux/IAA1 (protein, UniProt P49677 1-168)
chain: MEVTNGLNLKDTELRLGLPGAQEEQQLELSCVRSNNKRKNNDSTEESAPPPAKTQIVGWPPVRSNRKNNNNKNVSYVKVSMDGAPYLRKIDLKMYKNYPELLKALENMFKFTVGEYSEREGYKGSGFVPTYEDKDGDWMLVGDVPWDMFSSSCQKLRIMKGSEAPTAL

What follows are binders tested against T1, ARF4 (Arabidopsis thaliana) (assay: two-hybrid; S. cerevisiae AH109 co-transformed with pGBKT7-ARF (bait) and pGADT7-Aux/IAA (prey); growth on SD/-Ade-His-Leu-Trp against SD/-Leu/-Trp; at least 10 independent colonies; serial dilutions for strength).

binding	Binder
binds	B1
binds	B2
binds	B3
binds	B4
binds	B5
binds	B6
binds	B7
binds	B8
binds	B9
binds	B10
binds	B11

These binders were tested against T2, ARF8 (Arabidopsis thaliana) in the same assay as above.

binding	Binder
binds	B1
binds	B2
binds	B3
binds	B4
binds	B5
binds	B6
binds	B7
binds	B8
binds	B9
binds	B10
binds	B11

These binders were tested against T3, ARF6 (Arabidopsis thaliana) in the same assay as above.

binding	Binder
binds weakly	B1
binds	B2
binds	B3
binds	B4
binds	B5
binds	B6
binds	B7
binds	B8
binds	B9
binds	B10
binds	B11

Source: publication PMC4274898
